Data published in the supplement of paper PMC10338343.
± gives the standard deviation. The list shows a part of the results, in another mix than the full data.

Tested on: MIWI (PIWIL1) piRISC loaded with L1MC piRNA (30 nt)
Experiment: pre-steady-state target cleavage rate (min^-1); MIWI and MILI are mouse PIWI proteins and EfPiwi is from a freshwater sponge; tags in brackets are library labels; higher = faster piRNA-guided slicing of the target
Conditions: guide: L1MC piRNA 5'p-UAACUAAAUACUAUGCAAGCUGUAGGUCCU
In short: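 The pre-steady-state cleavage rate was obtained by Cleave-'n-Seq with a burst-and-steady-state fit. A transcribed, DNA-blocked target RNA library (0.1 nM) was mixed with 1 nM active affinity-purified piRISC carrying one synthetic guide, with or without 500 nM GTSF1 partner protein, in HEPES–potassium acetate buffer at 33 °C for 0–8 or 0–960 min. Uncleaved targets were sequenced and normalised to depth and to weakly complementary targets, with three trials pooled and k3 capped at 0.0001 min^-1.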

[1] = auxiliary factor: 500 nM mouse GTSF1
[2] = auxiliary factor: none (no GTSF1)

Row | Sequence | pre-steady-state target cleavage rate [1] | pre-steady-state target cleavage rate [2]
1 | UGGAGCUACAGCUUGCAUAGUAUUUAGAUA | 0.283 ± 0.039 | 0.0209 ± 0.0052
2 | UCGACCAAGAGCUUGCAUAGUAUUUAGUUA | 0.954 ± 0.04 | 0.0547 ± 0.011
3 | UCCUCCUGACAGCUUGCAUAGUAUUUAGUUA | 0.756 ± 0.029 | 0.0588 ± 0.01
4 | UCCUGCAACAGCUUGCAUAGUAUUUACAAA | 0.393 ± 0.071 | 0.00387 ± 0.0028
5 | UCCUGCUACAGCUUGCAUUGUAUUUAGUUA | 1.02 ± 0.045 | 0.0265 ± 0.0052
6 | UCCUCCUACAGCUUGCAUAGUAUUUUGUUA | 0.728 ± 0.034 | 0.0323 ± 0.0071
7 | UCCUGGAACUGCUUGCAUAGUUUUUAGUUA | 0.161 ± 0.015 | 0.0278 ± 0.0086
8 | UCCUGCUAGUGCUUGCAUAGUAUUUAGUUA | 0.177 ± 0.025 | 0.021 ± 0.0046
9 | UCGACCUACAGCUUGCAAAGAAUUUAGUUA | 0.303 ± 0.021 | 0.00797 ± 0.0031
10 | UCGACCUACAGCUUGGAUAGUAUUUAGAUA | 0.444 ± 0.05 | 0.0181 ± 0.0047
11 | UCGACCUUCAGCUUGCAUAGUUUUUAGUUA | 0.497 ± 0.024 | 0.0302 ± 0.0072
12 | UCCUGGAACAGCUUGCAUAGUAUUUAGUAUA | 0.808 ± 0.056 | 0.0146 ± 0.0047
13 | UCCUGGAUGAGCUUGCAUAGUAUUUAGUUA [g2:g21:cont:t1A] | 0.91 ± 0.042 | 0.0657 ± 0.013
14 | UGGACCUUGUGCUUGCAUAGUAUUUACAAA | 0.0152 ± 0.0046 | 0.00388 ± 0.0021
15 | UCGACCAUGAGCUUGCAUAGUAUUUAGUUA | 0.876 ± 0.045 | 0.0511 ± 0.0092
16 | UCCUCGUACAGCUUGCAUAGUAUUAAGUUA | 0.648 ± 0.041 | 0.0186 ± 0.0033
17 | UCCUGGAUGUCGUUGCAUUGUAUUUUGUUA | < 0.0001 | < 0.0001
18 | UCCUGGAUGAGCUUGCAUAGUAUUUUGUUA | 0.572 ± 0.047 | 0.0326 ± 0.0068
19 | UCCUCGUACAGCUUGCAUAGUAUUUACUUA | 0.248 ± 0.022 | 0.0279 ± 0.0037
20 | UCGACCUACAGCUUGCAUAGUAUUUUCUAA | 0.378 ± 0.044 | 0.00495 ± 0.0035

Row | Sequence | pre-steady-state target cleavage rate [1] | pre-steady-state target cleavage rate [2]
21 | UCCUGGAACAGCUCGCAUAGUAUUUAGUUA | 1.08 ± 0.035 | 0.0615 ± 0.015
22 | UCCUGGAUCAGCUUGCAUAGUAAAUAGUUA | 0.282 ± 0.038 | 0.00642 ± 0.0024
23 | UCCUGGAAGAGCUUGCAUAGUAUUUAGUAA | 0.596 ± 0.047 | 0.0217 ± 0.0058
24 | UCCUGGAUCAGCUUGGAUAGUAUUUAGAUA | 0.149 ± 0.025 | 0.015 ± 0.0044
25 | UCCUCCUACAGCUUGCAUAGUAGUUAGUUA | 0.466 ± 0.031 | 0.0176 ± 0.0033
26 | UCCUGGAUGUGCUAGCAUAGUAUUUACUUA | 0.0937 ± 0.016 | 0.00578 ± 0.0022
27 | UGGACCUACAGCUUGCAUAGUAAAUAGUUA | 0.751 ± 0.057 | 0.0156 ± 0.0049
28 | UCCUGCUACAGGUUGCAUAGUUUUUAGUUA | 0.252 ± 0.023 | 0.0309 ± 0.008
29 | AGGACCUACAGCUUGCAAGUAUUUAGUUA | 0.434 ± 0.036 | 0.0101 ± 0.0035
30 | UCCACCUACAGCUUGCAUAGUAUUUAGUUUA | 0.907 ± 0.047 | 0.0632 ± 0.014
31 | UCCUGGAACAGCUUGCAUACUAUUUAGUAA | 0.167 ± 0.025 | 0.0135 ± 0.0039
32 | UCCUGGAUGUCGUUGCAUAGUAUUUAGUUA [g2:g18:cont:t1A] | 0.0403 ± 0.0073 | 0.00451 ± 0.0025
33 | UCCUGCUAGAGCUUGCAUAGUUUUUAGUUA | 0.184 ± 0.022 | 0.0151 ± 0.0045
34 | UCCACCUACAGCUUGCAUAGAAUUUAGAUA | 0.247 ± 0.037 | 0.00935 ± 0.0029
35 | UCCUGGAACAGCUUGCAAAGAAUUUAGUUA | 0.278 ± 0.035 | 0.0157 ± 0.0055
36 | UCCUGGAAUAGCUUGCAUAGUAUUUAGUUA | 0.819 ± 0.031 | 0.0683 ± 0.014
37 | UGGAGCUACAGCUUGCAUAGUAUUUAGUUA | 1.25 ± 0.045 | 0.0783 ± 0.012
38 | AGGACCUACUCGUUGCAUAGUAUUUAGUUA | 0.934 ± 0.038 | 0.0301 ± 0.0061
39 | UCCUGCUACAGCUUGCAUAGUUUUUAGUAA | 0.133 ± 0.026 | 0.00676 ± 0.0018
40 | UCCUCCUACAGCUUGCAUAGUAUUUAGUAA | 0.763 ± 0.047 | 0.0421 ± 0.011

Row | Sequence | pre-steady-state target cleavage rate [1] | pre-steady-state target cleavage rate [2]
41 | UCCACCUACAGCAUGCAUAGUAUUUACUUA | 0.521 ± 0.057 | 0.0148 ± 0.0032
42 | UGGACCUAGUCCUUGCAUAGUAUUUAGUAA | 0.125 ± 0.026 | 0.0056 ± 0.002
43 | UCCUGGAACACGCUUGCAUAGUAUUUAGUUA | 0.904 ± 0.039 | 0.0525 ± 0.0094
44 | UCCUGGAUGUCCUUUGCAUAGUAUUUAGUUA | 0.0656 ± 0.011 | 0.0069 ± 0.0023
45 | UCCACCUUGAGCUUGCAUAGUAUUUAGUUA | 0.854 ± 0.13 | 0.0329 ± 0.0057
46 | UCCUGGAACAGCAUGCAUAGUAUAUAGUUA | 0.756 ± 0.062 | 0.0122 ± 0.0047
47 | UCGUCCAACAGCUUGCAUAGUAUUUAGUUA | 1.4 ± 0.044 | 0.0771 ± 0.014
48 | UCCUGGAUCACCUUGCAUACUAUUUAGUUA | 0.0963 ± 0.017 | 0.00902 ± 0.002
49 | UCCUCCUACAGCUGUGCAUAGUAUUUAGUUA | 1.18 ± 0.064 | 0.0204 ± 0.0047
50 | UCGACCUACACCUUGCAUAGUAUAUAGUUA | 0.791 ± 0.064 | 0.0219 ± 0.0055
51 | UCCUGGUACAGCUUGCAAAGUAUUUAGAUA | 0.249 ± 0.034 | 0.0146 ± 0.004
52 | UCCUGGAUCAGCGUUGCAUAGUAUUUAGUUA | 0.781 ± 0.04 | 0.0189 ± 0.005
53 | UCCUGGAACAGCAUGCAUAGUAUUUAGUAA | 0.695 ± 0.061 | 0.0107 ± 0.0026
54 | UCCUCCAUCAGCUUGCAUAGUAUUUAGUAA | 0.372 ± 0.028 | 0.0277 ± 0.0058
55 | UCCACCUACAGCUUACAUAGUAUUUAGUUA | 0.753 ± 0.034 | 0.0222 ± 0.0039
56 | UCGACCUACAGCUUGCAUAGUAUAUAGAUA | 0.29 ± 0.04 | 0.00446 ± 0.0022
57 | UGGACCUACAGCUUGCAUAGUUUUUAGUAA | 0.269 ± 0.018 | 0.0187 ± 0.0056
58 | UCGACCAACAGCUUGCAUAGUAUUUUGUUA | 0.939 ± 0.043 | 0.0471 ± 0.0068
59 | UCCUGGAACAGCUUGGAUAGUAUUUAGUUA | 1.18 ± 0.043 | 0.0808 ± 0.015
60 | UCCUGCUACAGCUUGCAUAGUAUUUAGUUA [g2:g25:cont:t1A] | 0.864 ± 0.042 | 0.0585 ± 0.01
